# The other results are listed elsewhere or left out.
# Test system: T1, C. trachomatis L2/434/Bu expressing GFP (CTL2-GFP)
# T1 construct: L2/434/Bu GFP intracellular growth in HeLa cells
# Design: species or system HeLa; C. trachomatis total inclusion area by high-content imaging, normalised to DMSO
# Conditions: total inclusion area; 28.5 h, 10 µM; inhibitor
# How it was run: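 Post-fluorescence-read fixation, DNA staining with Hoechst and high-content imaging; GFP inclusion area and number per well, and nuclei counts, used as proxies for bacterial growth and host viability.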
row,SMILES,% of control remaining
1,CC1CCN(Cc2ccc(-c3ccc(CC(=O)NCCc4ccc(O)cc4)cn3)cc2)CC1 [CBK158384],76.6425
2,Cc1cccc2c3c([nH]c12)C1(CCN(CCCC#N)CC1)NCC3 [CBK039818],86.612
3,Cc1cc(/C=C2/NC(=S)NC2=O)c(C)n1-c1ccc(Sc2ccc([N+](=O)[O-])cc2)cc1 [CBK263883],109.41
4,O=C(CC(=O)Nc1c(Cl)cccc1C(F)(F)F)Nc1c(Cl)cccc1C(F)(F)F [CBK263148],90.9031
5,COc1ccc(C2(C)NC(=O)N(CC(=O)Nc3ccc(NC(C)=O)cc3)C2=O)cc1 (stereo not shown) [CBK295182],102.74
6,Nc1ncc(-c2ccc(Cl)cc2)c(C2CCCN(C(=O)C3CCCC3)C2)n1 (stereo not shown) [CBK285571],123.873
7,Cn1c(COc2ccccc2)nnc1SCc1nnc(-c2ccccc2)o1 [CBK269628],95.0895
8,Nc1nc(Cc2ccc(F)cc2)no1 [CBK028717],65.8739
9,O=C(Nc1cccc2cc[nH]c12)c1cccc(F)c1Cl [CBK160074],71.5834
10,O=C(Cn1ccnc1)NC(c1ccc(Cl)cc1)c1cccnc1 (stereo not shown) [CBK281481],84.8894
11,N=c1c2c(-c3ccccc3)c(-c3ccccc3)n(Cc3ccccc3)c2ncn1CCN1CCOCC1 [CBK268537],37.7013
12,CN1C[C@@H](C(=O)N(C)C)[C@@]2(CCc3ccccc3C(=O)N2)C1 [CBK284792],109.546
13,Cc1nn(Cc2ccc(Cl)cc2)c(C)c1NC(=O)CSc1nc(-c2ccc(F)cc2)cc(C(F)(F)F)n1 [CBK266160],86.8262
14,CC1(CNC(=O)c2ccccc2Cn2cccn2)COC1 [CBK281750],105.562
15,CN(C)c1ccc(CC(=O)NC2Cc3ccccc3C2)cc1 [CBK200360],107.496
16,CCCNC(=O)c1cc(C2CCCN(Cc3ccc(F)cc3)C2)no1 (stereo not shown) [CBK283387],91.2555
17,O=C1COc2ccccc2C/C=C/CC2(CCN(C(=O)c3c[nH]cn3)CC2)C(=O)NCCN1 [CBK291990],110.186
18,CCN(Cc1cncn1C)C(CC1CCCCC1)c1ccccc1 (stereo not shown) [CBK066815T],83.4589
19,c1csc(CN2CCC(n3cnc4cccnc43)CC2)c1 [CBK283968],104.078
20,Cc1ccc(-n2ncc3c2NC(=O)N2CCCN=C32)cc1 [CBK284416],98.3567
21,O=c1c(Cc2ccc(Cl)cc2)c(O)ccn1Cc1ccncc1 [CBK291161],108.407
22,COc1cc(NC(=O)c2ccc3c(c2)C(=O)N(Cc2cccnc2)C3=O)c(C(=O)O)cc1OC [CBK266802],106.594
23,O=C(CCSc1ccc(Cl)cc1)NCCN1CCOCC1 [CBK269352],93.2736
24,COc1cccc(C(=O)N2CCC(Cc3cccc(-c4cccs4)c3)(C(N)=O)CC2)c1 [CBK285781],78.6698
25,COc1cc(F)cc(OC2CCNCC2)c1NC(=O)C1(c2ccccc2)CCCCC1 [CBK050241T],82.5254
26,CCOC(=O)c1c(CSc2ccc(Cl)cc2)n(C)c2cc(Br)c(O)c(CN(C)C)c12 [CBK217489C],76.9079
27,O=C(Nc1cccnc1)c1cccnc1C(=O)O [CBK269663],101.203

row,SMILES,% of control remaining
1,CCNC(=O)N1CC2(CCN(CC(=O)c3ccsc3)CC2)c2ccccc21 [CBK144601T],80.828
2,CC1(C(=O)NC2CCN(Cc3cccc(F)c3)CC2)CCCO1 (stereo not shown) [CBK282658],136.712
3,O=C(O)C[C@@H]1CCN(C(=O)C2CCCCC2)C[C@@H]1CC1=NCCc2ccccc21 [CBK289158],93.2345
4,CC(=O)N1C[C@@H]2CCCCN(CCc3ccc(F)cc3)[C@@H]2C1 [CBK285495],98.1739
5,CC(C)Oc1ccc(C(=O)C2=C(O)C(=O)N(CCN(C)C)C2c2ccncc2)cc1 (stereo not shown) [CBK264907],111.161
6,COC(=O)CCc1ccc(-c2cnc(N)c(-c3ccc(O)cc3)n2)cc1 [CBK122809],43.5292
7,CS(=O)(=O)N(Cc1ccccc1)c1ccc(C(=O)N2CCN(Cc3ccccc3)CC2)cc1 [CBK264134],82.2905
8,Cc1ccc(Cl)cc1NC(=O)CCn1cnc2ccccc2c1=O [CBK270103],102.018
9,Cc1nnnn1-c1ccc(CC(=O)N2CCc3sccc3C2c2ccco2)cc1 (stereo not shown) [CBK285705],90.3966
10,O=C(c1ccco1)N1CCN(c2cc(-c3cccnc3)ncn2)CC1 [CBK037833],122.183
11,Cc1nc2cc(C(=O)N3CCc4[nH]c5ccccc5c4C3)ccc2n1C [CBK281842],80.3627
12,CC(=O)Nc1ccc(-c2cncc(Nc3ccc(C#N)cc3)n2)cc1 [CBK066009],138.718
13,O=C(O)C1CC=CCC1C(=O)NCc1ccc(N2CCCC2=O)cc1 (stereo not shown) [CBK270081],98.607
14,CCOC(=O)C(C)n1nc(CC)n2c(cc3ccsc32)c1=O (stereo not shown) [CBK284127],80.2534
15,CN(CCN1CCCCC1)C(=O)C1Cc2cc(Cl)ccc2O1 (stereo not shown) [CBK282640],115.887
16,O=C(c1ccc2[nH]c(=O)[nH]c2c1)N1CCC2(CCN(C(=O)c3cc(F)c(F)cc3F)C2)C1 (stereo not shown) [CBK131407],74.5991
17,NCc1ccc(CN(Cc2cnc(-c3ccccc3)[nH]2)C(=O)Nc2ccc3c(c2)OCO3)cc1 [CBK046158C],75.2408
18,c1ccc(C(NCc2cnc(-c3ncccn3)s2)C2CCC2)cc1 (stereo not shown) [CBK304013],72.6053
19,Cc1cccc(C(=O)NNC(=O)COc2cccc3ccccc23)c1O [CBK262993],92.9573
20,O=C(NCc1cccc(C(F)(F)F)c1)N1CCN(CCN2CCOCC2)CC1 [CBK155671],93.0344
21,COc1ccc(OC(C)(C)C(=O)N2CCCC(c3ccc(Nc4ncccn4)cn3)C2)cc1 (stereo not shown) [CBK285970],101.343
22,O=C(CN1CCN(Cc2ccccc2)CC1)Nc1cccc(Cl)c1 [CBK267850],111.093
23,O=C(C1C2CCCCC21)N1CCC(c2nnc3n2CCCCC3)CC1 (stereo not shown) [CBK283351],96.5855
24,COc1cccc2sc(NC(=O)CN3CCOCC3)nc12 [CBK149281],105.079
25,Cc1csc(C(Cc2ccsc2)NC(=O)C2CCOC2)n1 (stereo not shown) [CBK285150],98.8715
26,Cc1nn(CC(=O)N2CCCCCC2)c(=O)c2cc3sccc3n12 [CBK284084],94.9429
27,COc1ccc([C@@]23CC[C@@H](NC(=O)Nc4cccc(C#N)c4)C[C@@H]2N(C)CC3)cc1OC [CBK036448T],84.5573

row,SMILES,% of control remaining
1,CN(CCCC(=O)Nc1nnc[nH]1)S(=O)(=O)c1ccccc1 [CBK267380],91.1233
2,Cc1noc2c1[C@H]1[C@H](O)[C@H](O)C[C@H]1C1(CCC1)N2 [CBK303266],53.1008
3,COc1ccc(C(=O)N2CCC3(CCCN(C(=O)c4cccnc4)C3)C2)cc1OC (stereo not shown) [CBK131668],75.4205
4,Clc1cc2nc(OCCCc3ccncc3)c(N3CCCC3)nc2cc1Cl [CBK115774],87.8308
5,Cc1cc(OCC(=O)N2CCNC(=O)C2)c2c(C)c(C)c(=O)oc2c1 [CBK307624],56.4865
6,CCN(CC)CCCNC(=O)N1CCCC(C(=O)N(CC)CC)C1 (stereo not shown) [CBK156149],101.482
7,COC(=O)c1ccc2c(c1)[n+](CCO)c(C)n2CCO [CBK262443C],102.125
8,CCOc1ccc(CN(C)C(=O)Cn2nc(C(=O)O)c3ccccc3c2=O)cc1 [CBK297492],88.9284
9,CC1CCc2c(sc3ncnc(SC(C)C(=O)OC4CCCCC4)c23)C1 (stereo not shown) [CBK265050],119.091
10,CC1CCc2nc3ccccc3c(C(=O)N(C)Cc3cnn(C)c3)c2C1 (stereo not shown) [CBK305749],28.4369
11,CCN(CC)S(=O)(=O)c1ccc(C)c(NS(=O)(=O)c2cc(C(=O)O)n(C)c2)c1 [CBK297782],102.306
12,COc1ccc(Oc2nccnc2N2CCN(Cc3ccc([N+](=O)[O-])cc3)CC2)cc1OC [CBK083046T],60.8679
13,CC(C)NC(=O)Cn1cnc2c1c(=O)n(C)c(=O)n2C [CBK133257],93.3004
14,O=C1NN=C(CSCCO)Oc2ccccc21 [CBK006771],45.5115
15,COCc1cccc(Nc2ncnc3c2cnn3CCO)c1 [CBK306214],83.9996
16,CC(=O)c1ccc(S(=O)(=O)N2CCCCC2C)cc1 (stereo not shown) [CBK069211],96.5075
17,C(=C\c1nccnc1OCc1cccs1)/c1ccccc1 [CBK106883],95.1156
18,COc1ccc(S(=O)(=O)NCCN2CCOCC2)cc1Br [CBK269838],81.1792
19,CC(C)CC(NC(=O)c1cccnc1)c1nnc2n1CCNCC2 (stereo not shown) [CBK307149],87.5317
20,Cc1nn(C)c(Sc2ccccc2)c1[N+](=O)[O-] [CBK002937],77.6157
21,O=C(NCC(CO)Cc1ccsc1)N1CCN(c2ccncc2)CC1 (stereo not shown) [CBK306929],47.2495
22,Cc1nn(Cc2ccccn2)c(=O)n2cccc12 [CBK283849],102.373
23,CCN(CC)C(=O)CNS(=O)(=O)Cc1ccccc1[N+](=O)[O-] [CBK034504],92.2535
24,CC(=O)Nc1nc(OCC(F)(F)F)cnc1-c1ccc2c(c1)OCO2 [CBK145427],89.5409
25,CCOC(=O)c1[nH]c2ccccc2c1NS(=O)(=O)c1ccc(Br)cc1 [CBK047409],60.5046

# — publication PMC12040169 (PLOS Biology, 2025)
